The values that follow come from patent US12642862B2, “Anti-CD79B antibody-drug conjugate, and preparation method therefor and pharmaceutical use thereof” (TUOJIE BIOTECH (SHANGHAI) CO., LTD., priority 2020, dated 2026).

The target of series [1] is T1, Human CD79B-His protein (Homo sapiens, UniProt P40259).
T1 construct: His tag (HHHHHH) (C); made in house; host or cells: 293F cells
T1 sequence (P40259 29-159): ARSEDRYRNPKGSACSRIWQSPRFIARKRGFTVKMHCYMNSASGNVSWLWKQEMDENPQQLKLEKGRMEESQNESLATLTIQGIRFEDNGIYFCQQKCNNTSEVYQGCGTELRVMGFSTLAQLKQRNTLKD
Put plainly: ELISA assay of humanized anti-CD79B antibodies. The class given is binding. The text has this: (§1) The above antibodies were cloned, expressed and purified, and the humanized antibodies hAb015-10 and hAb017-10 with the best activity were selected by ELISA, FACS, SPR and other assays.

The target of series [2] is T1, Human CD79B-His protein. Put plainly: SPR assay of anti-CD79B antibodies. The class given is binding. How it is done: 7) Assay on anti-human CD79B mouse monoclonal antibodies by SPR The affinity of the anti-human CD79B antibody for its antigen human CD79B-His was assayed by surface plasmon resonance (SPR) technology. The antigen human CD79B-His protein was immobilized to a CM5 chip. The coupling level was set at 100 RU. The running buffer was HBS-EP+ (10 mM HEPES, 150 mM NaCl, 3 mM EDTA, 0.05% surfactant P20). The diluted antibodies were allowed to flow through the experimental and control channels at a flow rate of 30 μL/min for 3 min and dissociated for 5 min. Regeneration buffer (10 mM Glycine, pH 1.5) was then run at a flow rate of 30 μL/min for 30 s. Data were analyzed using Biacore 8K software.
as §1

The subject of series [3] is DoHH2 cell. Put plainly: FACS assay of humanized anti-CD79B antibodies. The class given is binding, human.
From the text: as §1

Series [4] relates to DoHH2 cell. Put plainly: Cell killing assay of humanized antibodies, DoHH2. The class given is cell-based, human.
From the text: as §1

For a further series, the system named is WSU-DLCL2 cell. Put plainly: Cell killing assay of humanized antibodies, WSU-DLCL2. The class given is cell-based, human.
From the text: as §1

For the next series, the system named is Raji cell. Put plainly: Cell killing assay of humanized antibodies, Raji. The class given is cell-based.
From the text: as §1

Series [5] deals with T1, Human CD79B-His protein. Description: Interspecific cross-reactivity, human CD79B. The class given is binding.
From the text: as §1

In another series the test system is Monkey CD79B-His protein. Put plainly: Interspecific cross-reactivity, monkey CD79B. The class given is binding.
From the text: as §1

A further series deals with T2, Mouse CD79B-His protein (Mus musculus, UniProt P15530).
T2 construct: His
T2 sequence (P15530 26-228): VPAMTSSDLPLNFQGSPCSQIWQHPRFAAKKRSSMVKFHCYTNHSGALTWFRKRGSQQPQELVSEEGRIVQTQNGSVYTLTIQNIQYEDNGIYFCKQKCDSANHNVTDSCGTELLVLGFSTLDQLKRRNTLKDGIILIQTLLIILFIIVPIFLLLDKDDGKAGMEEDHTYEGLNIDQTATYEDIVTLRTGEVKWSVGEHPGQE
Put plainly: Interspecific cross-reactivity, mouse CD79B. The class given is binding.
From the text: as §1

Series [6] can be described thus: Thermal stability test (DSC, DLS). The class given is physicochemical.
From the text: as §1

For series [7], the system named is DOHH-2 cells highly expressing human CD79B protein. Description: Endocytosis of anti-CD79B antibodies in DOHH-2 cells. The class given is cell-based. How it is done:
In order to determine whether the CD79B antibodies of the present disclosure can be endocytosed into cells with human CD79B after binding to human CD79B, a cell endocytosis experiment was performed with DOHH-2 cells (DSMZ, ACC 47) highly expressing human CD79B protein to assess the endocytosis ability of the antibodies.
The cells were collected by low temperature centrifugation at 4° C. for 5 min at 1000 rpm during the experiment. The cells were resuspended in 10-15 mL of FACS buffer pre-cooled on ice. The FACS buffer was composed of phosphate buffered saline (PBS), pH 7.4, with 2% fetal bovine serum (FBS). Throughout the experiment, FACS buffer was pre-cooled on ice. The cells were counted and centrifuged, and added to a 96-well plate at 300,000 cells/well. After centrifugation, the supernatant was discarded, and 12.5 μg/mL Fc blocking solution (BD, Cat No.: 564220) was added at 100 μL/well. Blocking was performed at room temperature for 10 min. Then, 20 μg/mL test CD79B antibody was added to the corresponding wells, and the plate was incubated at 4° C. for 1 h away from the light. The plate was washed twice with a pre-cooled PBS buffer to remove unbound antibodies. A complete cell culture medium (RPMI 1640 medium with 10% fetal bovine serum) was added, and the plate was incubated at 37° C. with 5% CO2 for 0 h, 1 h, 2 h and 4 h. After centrifugation, the supernatant was discarded, 2% PFA buffer solution was added at 100 μL/well to resuspend the cells, and the plate was left to stand for 10 min. Then, the plate was washed 3 times with an FACS buffer, and 100 μL of secondary antibody solution (fluorescent labeled goat anti-human secondary antibody: diluted in a 1:250 ratio, 2 μg/mL, Biolegend, Cat #409304) was added. The plate was incubated at 4° C. for half an hour away from the light. A pre-cooled PBS buffer was added, and the supernatant was discarded after centrifugation at 4° C., which were repeated three times. The cells were resuspended in an FACS buffer at 200 μL/well and detected using a flow cytometer (BD FACS Calibur).

B1: hAb017-10: humanized anti-CD79B antibody from mAb017; heavy chain SEQ ID NO: 30, light chain SEQ ID NO: 31 (antibody)
heavy: EVQLVQSGAEVKKPGASVKVSCKASGYTFTTYGINWVKQAPGQGLEWIGEIYPRSGNIYYNEKFKGKATLTADKSTSTAYMELRSLRSDDTAVYYCARGSDYDGDFAYWGQGTLVTVSS[letters of human IgG1 constant region not shown]
light: DVVMTQTPLSLPVTPGEPASISCRSSQSIVHHDGNTYLEWYLQKPGQSPQLLIYKVSNRFSGVPDRFSGSGSGTDFTLKISRVEAEDVGVYYCFQGSHVPWTFGGGTKVEIKRTVAAPSVFIFPPSDEQLKSGTASVVCLLNNFYPREAKVQWKVDNALQSGNSQESVTEQDSKDSTYSLSSTLTLSKADYEKHKVYACEVTHQGLSSPVTKSFNRGEC
modifications: Heavy chain of hAb017-10 humanized antibody; Light chain of hAb017-10 humanized antibody
Take B1: the EC50 was found to be 0.06 nM with Human CD79B-His protein [1] and 0.55 nM in the series with DoHH2 cell [3]. The molecule further registered a Kd with Human CD79B-His protein [2] (Human CD79B-His protein) of 4.3 nM. Further, the “affinity and related functions compared with the mouse monoclonal antibodies” value with Human CD79B-His protein [2] (by ELISA, FACS, SPR and other assays) is “retained similar affinity and related functions to the mouse monoclonal antibodies”. Moreover, the IC50 with DoHH2 cell [4] was 0.002 nM; in the series with WSU-DLCL2 cell, 0.049 nM; in the series with Raji cell, over 100 nM. Besides, the Interspecific cross-reactivity result in the series with Human CD79B-His protein [5] was “Yes”; in the series with Monkey CD79B-His protein, “No”; in the series with Mouse CD79B-His protein, “No”. Also, the “Thermal stability test DLS (Tagg, ° C.)” value in series [6] (DLS) was 67 °C. For the same molecule, the “Thermal stability test DSC (Tm, ° C.)” value in [6] (DSC) is 65 °C. Besides, the “endocytosis by DOHH-2 cells at 4° C.” value in series [7] (20 μg/mL antibody, incubation at 4° C.) is reported as “cannot be endocytosed by DOHH-2 cells”. In [7] (20 μg/mL antibody, incubation at 37° C., 1 h), the “endocytosis by DOHH-2 cells at 37° C. after 1 h” value is on record as “most of the antibodies are already endocytosed by DOHH-2 cells”. Besides, the “endocytosis, overall judgement” value in [7] (DOHH-2 cells) is recorded as “good endocytosis”. Moreover, the “time at which antibody endocytosis reaches a maximum” value in series [7] (incubation at 37° C.) worked out at 4 h.
